# Experimental data: article PMC12136788
# Some of the results follow.
# B1: chr1:6238667:6238668:+_ENSMUSG00000025907_ENSMUST00000027040|mus_hu|motif|central (ssRNA)
# RNA: GGGAGUUCUACAGUCCGACGAUCCAUCAUUUCUGGGCUUUGUGGAUCACUUAUAGGAUUAGGAGACGACAAAUUUUCUUCGGUUACAAACUCAUUCACAGCAGACAUAAAAUCUGAUUCAGGACUUUCUGCUAAUGAAUCCAACAACAGAGGAUUGAGCAUCA
# B2: 173274441_173274561_334_CDS_ENSMUSG00000013997_ENSMUST00000111295|mouse|control|control (ssRNA)
# RNA: GGGAGUUCUACAGUCCGACGAUCCAAAAGAUCCCCAUUCAGUGGUUCGGACAGGAGUAAUGUCUCGGCAGGGUUUCGUGCAAUAAAGUCAAAUGCCUCAGGCAGAAAGGCCAGGCAAGCACCCAGUCUGGCAGCCUCUUGAACCAACAGAGGAUUGAGCAUCA
# B3: chr13:36129161:36129162:+_ENSG00000172915_ENST00000537702|hu_mus|FALSE|FALSE (ssRNA)
# RNA: GGGAGUUCUACAGUCCGACGAUCCAAAUACUCAAAGUUGGAGAUUUCCCUUCUUUGCCAGCGCUGAGUCAUAUUGGAAGACUUAUACAGCUGUCGAGGAGUGGCCAGUGAUAUCCUCCUGGCUUGUGGCAAACCAUAGCUGGUCAACAGAGGAUUGAGCAUCA
# B4: 4322100_4322220_140_5pUTR_ENSMUSG00000026657_ENSMUST00000075767|mouse|control|control (ssRNA)
# RNA: GGGAGUUCUACAGUCCGACGAUCCAGGGAUUGAGCGCGGGCCCGCUGGAGGGGCCUCCUUUCGCCACUGGAUCCCAGGACAACAAUGAGAUCUUCUGCCUCCCUAGCGCCCAAUCCGGCCAAGGACACCCCAAGUCACCCCCCCAACAGAGGAUUGAGCAUCA
# B5: chr7:10978501:10978502:-_ENSG00000189043_ENST00000339600|hu_mus|FALSE|FALSE (ssRNA)
# RNA: GGGAGUUCUACAGUCCGACGAUCAUUAAACAGUGCCAAGCGCAUCACAUACAGUGCUGCUCCAGUACCCCCUGCUCCAAUAAAUACGAAGAGAGGAAUCAAGCUGGGAUGCUUCUUGGCUUGCCCGAGGAUCUGGCGGAGCAUCAACAGAGGAUUGAGCAUCA
# B6: chr4:25749455:25749456:-_ENSG00000091490_ENST00000264868|hu_hu|hu_hu_hu_mus_False|18_28 (ssRNA)
# RNA: GGGAGUUCUACAGUCCGACGAUCGCACUAUGACCUCUAGAAAAAUCCACAGGGGGAAAAAAUGUAAACCAAUGUACAAUGUUAUCGCCUUCCCUGUGUGUGGAGUGACAAACAAUUUAUUUCAAGGAGCUGCUGGAUUUGGGACAACAGAGGAUUGAGCAUCA
# Target: T1, UNK ZnF1-3 (human, UniProt Q9C0B0 31-174)
# T1 sequence: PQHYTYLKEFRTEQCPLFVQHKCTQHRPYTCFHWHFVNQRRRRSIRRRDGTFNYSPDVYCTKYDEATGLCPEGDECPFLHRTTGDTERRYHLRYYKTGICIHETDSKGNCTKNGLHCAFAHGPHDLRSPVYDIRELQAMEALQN
# Assay: nsRBNS (natural sequence RNA bind-n-seq); RBNS binding buffer (assumed for nsRBNS): 25 mM Tris pH 7.5, 150 mM KCl, 3 mM MgCl2, 0.01% Triton X-100, 500 ug/ml BSA, 20 U/ml SUPERase-In, 4 C; UNK is unkempt and MSI1 is Musashi-1; names of the RNAs are library labels; protein concentration not given here; high values mean tight binding
row,Binder,binding signal
1,B1,1.35 enrichment R
2,B2,1.02 enrichment R
3,B3,0.899 enrichment R
4,B4,1.8 enrichment R
5,B5,0.937 enrichment R
6,B6,1.93 enrichment R
